Values quoted from earlier work as cited in publication PMC8775252, “Characterization of Alternaria porri causing onion purple blotch and its antifungal compound magnolol identified from Caryodaphnopsis baviensis” (PLoS ONE, 2022).

Conditions: cited from earlier work

Which “mutagenic and genotoxic studies” value does the source give for C=CCc1ccc(O)c(-c2cc(CC=C)ccc2O)c1 [magnolol, 5,5’-di-2-propenyl-1,1’-biphenyl-2,2’-diol] here?
The value was “does not give rise to any concerns for human health”.
